From US7550559B2, “Acylsulfonamide compounds as inhibitors of hepatitis C virus NS3 serine protease” (Schering Corporation, priority 2004, dated 2009)

Target: Recombinant heterodimeric HCV NS3/NS4A protease (strain 1a) (Hepatitis C virus genotype 1a, UniProt P27958)
Assay: Spectrophotometric assay for HCV protease inhibitory activity (chromogenic ester substrates)
Type: biochemical
Conditions: HCV NS3/NS4A protease; text calls the values Ki* (Table 2)
Excerpt: The present invention relates to novel HCV protease inhibitors. This utility can be manifested in their ability to inhibit the HCV NS3/NS4a serine protease.
Assay for HCV Protease Inhibitory Activity:
Spectrophotometric Assay: Spectrophotometric assay for the HCV serine protease can be performed on the inventive compounds by following the procedure described by R. Zhang et al, Analytical Biochemistry, 270 (1999) 268-275, the disclosure of which is incorporated herein by reference. The assay based on the proteolysis of chromogenic ester substrates is suitable for the continuous monitoring of HCV NS3 protease activity. The substrates are derived from the P side of the NS5A-NS5B junction sequence (Ac-DTEDVVX(Nva), where X=A or P) (SEQ ID NO: 1) whose C-terminal carboxyl groups are esterified with one of four different chromophoric alcohols (3- or 4-nitrophenol, 7-hydroxy-4-methyl-coumarin, or 4-phenylazophenol). Illustrated below are the synthesis, characterization and application of these novel spectrophotometric ester substrates to high throughput screening and detailed kinetic evaluation of HCV NS3 protease inhibitors. Materials and Methods:
Materials: Chemical reagents for assay related buffers are obtained from Sigma Chemical Company (St. Louis, Mo.). Reagents for peptide synthesis were from Aldrich Chemicals, Novabiochem (San Diego, Calif.), Applied Biosystems (Foster City, Calif.) and Perseptive Biosystems (Framingham, Mass.). Peptides are synthesized manually or on an automated ABI model 431A synthesizer (from Applied Biosystems). UV/VIS Spectrometer model LAMBDA 12 was from Perkin Elmer (Norwalk, Conn.) and 96-well UV plates were obtained from Corning (Corning, N.Y.). The prewarming block can be from USA Scientific (Ocala, Fla.) and the 96-well plate vortexer is from Labline Instruments (Melrose Park, Ill.). A Spectramax Plus microtiter plate reader with monochrometer is obtained from Molecular Devices (Sunnyvale, Calif.).
Protein concentrations are determined by the Biorad dye method using recombinant HCV protease standards previously quantified by amino acid analysis. Prior to assay initiation, the enzyme storage buffer (50 mM sodium phosphate pH 8.0, 300 mM NaCl, 10% glycerol, 0.05% lauryl maltoside and 10 mM DTT) is exchanged for the assay buffer (25 mM MOPS pH 6.5, 300 mM NaCl, 10% glycerol, 0.05% lauryl maltoside, 5 μM EDTA and 5 μM DTT) utilizing a Biorad Bio-Spin P-6 prepacked column. Substrate Synthesis and Purification: The synthesis of the substrates is done as reported by R. Zhang et al, (ibid.) and is initiated by anchoring Fmoc-Nva-OH to 2-chlorotrityl chloride resin using a standard protocol (K. Barlos et al, Int. J. Pept. Protein Res., 37 (1991), 513-520). The peptides are subsequently assembled, using Fmoc chemistry, either manually or on an automatic ABI model 431 peptide synthesizer. […] The combined filtrate and DCM wash is evaporated azeotropically (or repeatedly extracted by aqueous Na2CO3 solution) to remove the acid used in cleavage. The DCM phase is dried over Na2SO4 and evaporated.
The ester substrates are assembled using standard acid-alcohol coupling procedures (K. Holmber et al, Acta Chem. Scand., B33 (1979) 410-412). Peptide fragments are dissolved in anhydrous pyridine (30-60 mg/ml) to which 10 molar equivalents of chromophore and a catalytic amount (0.1 eq.) of para-toluenesulfonic acid (pTSA) were added. Dicyclohexylcarbodiimide (DCC, 3 eq.) is added to initiate the coupling reactions. Product formation is monitored by HPLC and can be found to be complete following 12-72 hour reaction at room temperature. Pyridine solvent is evaporated under vacuum and further removed by azeotropic evaporation with toluene.

Ki	SMILES
9 nM	C=CC1C[C@]1(NC(=O)[C@@H]1[C@@H]2C(CN1C(=O)[C@@H](NC(=O)N[C@H](CN(C)S(=O)(=O)c1cccs1)C(C)(C)C)C(C)(C)C)C2(C)C)C(=O)NS(=O)(=O)c1ccccc1 (stereo partly shown) [drawing 125]
7 nM	C=CC1C[C@]1(NC(=O)[C@@H]1[C@@H]2C(CN1C(=O)[C@@H](NC(=O)N[C@H](CN(C)S(C)(=O)=O)C(C)(C)C)C(C)(C)C)C2(C)C)C(=O)NS(=O)(=O)c1ccccc1 (stereo partly shown) [drawing 126]
7 nM	C=CC1C[C@]1(NC(=O)[C@@H]1[C@@H]2C(CN1C(=O)[C@@H](NC(=O)NC1(CS(=O)(=O)C(C)(C)C)CCCCC1)C(C)(C)C)C2(C)C)C(=O)NS(=O)(=O)c1ccccc1 (stereo partly shown) [drawing 127]

Same assay, conditions: HCV NS3/NS4a serine protease; category A or B (Table 1)

Ki	SMILES
> 100 nM	CC(C)(C)OC(=O)N[C@H](C(=O)N1CC2[C@@H]([C@H]1C(=O)NC1(C(=O)NS(=O)(=O)c3ccccc3)CC1)C2(C)C)C(C)(C)C (stereo partly shown) [Entry 2]
> 100 nM	CC(C)(C)NC(=O)N[C@H](C(=O)N1CC2[C@@H]([C@H]1C(=O)NC1(C(=O)NS(=O)(=O)c3ccccc3)CC1)C2(C)C)C(C)(C)C (stereo partly shown) [Entry 3]
> 100 nM	CC(C)[C@H](NC(=O)N[C@H](C(=O)N1CC2[C@@H]([C@H]1C(=O)NC1(C(=O)NS(=O)(=O)c3ccccc3)CC1)C2(C)C)C(C)(C)C)C(=O)C1CC1 (stereo partly shown) [Entry 4]
> 100 nM	C=CC1C[C@]1(NC(=O)[C@@H]1[C@@H]2C(CN1C(=O)[C@@H](NC(=O)OC(C)(C)C)C(C)(C)C)C2(C)C)C(=O)NS(=O)(=O)c1ccccc1 (stereo partly shown) [Entry 5]
< 100 nM	C=CC1C[C@]1(NC(=O)[C@@H]1[C@@H]2C(CN1C(=O)[C@@H](NC(=O)N[C@H](CN(C)S(=O)(=O)c1cccs1)C(C)(C)C)C(C)(C)C)C2(C)C)C(=O)NS(=O)(=O)c1ccccc1 (stereo partly shown) [Entry 6]
< 100 nM	C=CC1C[C@]1(NC(=O)[C@@H]1[C@@H]2C(CN1C(=O)[C@@H](NC(=O)N[C@H](C(=O)C1CC1)C(C)C)C(C)(C)C)C2(C)C)C(=O)NS(=O)(=O)c1ccccc1 (stereo partly shown) [Entry 7]
> 100 nM	C=CC1C[C@]1(NC(=O)[C@@H]1[C@@H]2C(CN1C(=O)[C@@H](NC(=O)NC(C)(C)C)C(C)(C)C)C2(C)C)C(=O)NS(=O)(=O)c1ccccc1 (stereo partly shown) [Entry 8]
< 100 nM	C=CC1C[C@]1(NC(=O)[C@@H]1[C@@H]2C(CN1C(=O)[C@@H](NC(=O)N[C@H](CN(C)S(C)(=O)=O)C(C)(C)C)C(C)(C)C)C2(C)C)C(=O)NS(=O)(=O)c1ccccc1 (stereo partly shown) [Entry 9]
< 100 nM	C=CC1C[C@]1(NC(=O)[C@@H]1[C@@H]2C(CN1C(=O)[C@@H](NC(=O)NC1(CS(=O)(=O)C(C)(C)C)CCCCC1)C(C)(C)C)C2(C)C)C(=O)NS(=O)(=O)c1ccccc1 (stereo partly shown) [Entry 10]
> 100 nM	CN(C[C@@H](NC(=O)N[C@H](C(=O)N1CC2[C@@H]([C@H]1C(=O)NC1(C(=O)NS(=O)(=O)c3ccccc3)CC1)C2(C)C)C(C)(C)C)C(C)(C)C)S(=O)(=O)c1cccs1 (stereo partly shown) [Entry 11]
< 100 nM	C=CC1C[C@]1(NC(=O)[C@@H]1[C@@H]2C(CN1C(=O)[C@@H](NC(=O)OC(C)(C)C)C(C)(C)C)C2(C)C)C(=O)NS(=O)(=O)C1CC1 (stereo partly shown) [Entry 12]
< 100 nM	C=CC1C[C@]1(NC(=O)[C@@H]1[C@@H]2C(CN1C(=O)[C@@H](NC(=O)N[C@H](CN(C)S(=O)(=O)c1ccccn1)C(C)(C)C)C(C)(C)C)C2(C)C)C(=O)NS(=O)(=O)C1CC1 (stereo partly shown) [Entry 13]
< 100 nM	C=CC1C[C@]1(NC(=O)[C@@H]1[C@@H]2C(CN1C(=O)[C@@H](NC(=O)N[C@H](CN(C)S(C)(=O)=O)C(C)(C)C)C(C)(C)C)C2(C)C)C(=O)NS(=O)(=O)C1CC1 (stereo partly shown) [Entry 14]
